Assay results from the supplement of paper PMC12217912.
Some of the results follow. Sequences were assembled here from the parent chain. Values near 0.05 are background.

B1: TEV protease; numbered along this chain (parent)
chain: MGESLFKGPRDYNPISSSICHLTNESDGHTTSLYGIGFGPFIITNKHLFRRNNGTLVVQSLHGVFKVKDTTTLQQHLVDGRDMIIIRMPKDFPPFPQKLKFREPQREERICLVTTNFQTKSMSSMVSDTSCTFPSGDGIFWKHWIQTKDGQCGSPLVSTRDGFIVGIHSASNFTNTNNYFTSVPKNFMELLTNQEAQQWVSGWRLNADSVLWGGHKVFMVKPEEPFQPVKEATQL

Variants of: B1
Test: raw area under fraction-flipped curve 0-4 h after induction (AUC4h, not background-subtracted), DNA-recorder readout of cleavage of the substrate (dimensionless); higher = more cleavage of the substrate by the protease variant
Settings: temperature: 34 °C; time window: 0-4 h after rhamnose induction
Description: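 In vivo DNA recorder in E. coli TOP10(DE3) ΔrhaA at 34 °C. Each TEVp single-site mutant (parent TEVp 0) is paired with a single-site variant of the 7-mer TEVs (canonical ENLYFQ|S). The substrate sits between flexible linkers in a Bxb1-sfGFP-TEVs-SsrA fusion, so cleavage stabilises Bxb1 and speeds flipping of a recombination array, read by NGS. The value is the raw area under the fraction-flipped curve over 0-4 h after rhamnose induction (AUC4h), with ≥20 reads per time point. It is not background-subtracted; inactive controls average about 0.047.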
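Further: Bxb1 expression induced with 0.2% (w/v) L-rhamnose at OD600 near 0.5, cultures sampled hourly, flipped fraction per protease–substrate barcode pair counted by paired-end Illumina sequencing.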

Row | Variant | area with substrate FNLYFQS | area with substrate GNLYFQS | area with substrate HNLYFQS | area with substrate INLYFQS | area with substrate MNLYFQS | area with substrate NNLYFQS | area with substrate PNLYFQS | area with substrate WNLYFQS | area with substrate QNLYFQS | area with substrate SNLYFQS
1 | MGESLFKGPRDYNPISSSICHLTNESDGHTTSLYGIGFGPFIITNKHLFRRNNGTLVVQSLHGVFKVKDTTTLQQHLVDGRDMIIITMPKDFPPFPQKLKFREPQREERICLVTTNFQTKSMSSMVSDTSCTFPSGDGIFWKHWIQTKDGQCGSPLVSTRDGFIVGIHSASNFTNTNNYFTSVPKNFMELLTNQEAQQWVSGWRLNADSVLWGGHKVFMVKPEEPFQPVKEATQL [R87T] | 0.0559 | 0.0543 | 0.0655 | 0.0758 | 0.0413 | 0.0489 | 0.0678 | 0.0579 |  | 
2 | MGESLFKGPRDYNPISSSICHLTNESDGHTTSLYGIGFGPFIITNKHLFRRNNGTLVVQSLHGVFKVKDTTTLQQHLVDGRDMIIIRMPMDFPPFPQKLKFREPQREERICLVTTNFQTKSMSSMVSDTSCTFPSGDGIFWKHWIQTKDGQCGSPLVSTRDGFIVGIHSASNFTNTNNYFTSVPKNFMELLTNQEAQQWVSGWRLNADSVLWGGHKVFMVKPEEPFQPVKEATQL [K90M] | 0.0625 | 0.0715 |  |  |  |  |  | 0.0588 | 0.0319 | 0.0772
3 | MGESLFKGPRDYNPISSSICHLTNESDGHTTSLYGIGFGPFIITNKHLFRRNNGTLVVQSLHGVFKVKDTTTLQQHLVDGRDMIIIRMPKMFPPFPQKLKFREPQREERICLVTTNFQTKSMSSMVSDTSCTFPSGDGIFWKHWIQTKDGQCGSPLVSTRDGFIVGIHSASNFTNTNNYFTSVPKNFMELLTNQEAQQWVSGWRLNADSVLWGGHKVFMVKPEEPFQPVKEATQL [D91M] | 0.0612 |  |  |  |  |  | 0.0653 |  |  | 0.0784
4 | MGESLFKGPRDYNPISSSICHLTNESDGHTTSLYGIGFGPFIITNKHLFRRNNGTLVVQSLHGVFKVKDTTTLQQHLVDGRDMIIIRMPKSFPPFPQKLKFREPQREERICLVTTNFQTKSMSSMVSDTSCTFPSGDGIFWKHWIQTKDGQCGSPLVSTRDGFIVGIHSASNFTNTNNYFTSVPKNFMELLTNQEAQQWVSGWRLNADSVLWGGHKVFMVKPEEPFQPVKEATQL [D91S] | 0.0361 |  | 0.0663 | 0.0624 |  | 0.0421 |  | 0.0698 | 0.0681 | 
5 | MGESLFKGPRDYNPISSSICHLTNESDGHTTSLYGIGFGPFIITNKHLFRRNNGTLVVQSLHGVFKVKDTTTLQQHLVDGRDMIIIRMPKDLPPFPQKLKFREPQREERICLVTTNFQTKSMSSMVSDTSCTFPSGDGIFWKHWIQTKDGQCGSPLVSTRDGFIVGIHSASNFTNTNNYFTSVPKNFMELLTNQEAQQWVSGWRLNADSVLWGGHKVFMVKPEEPFQPVKEATQL [F92L] | 0.0699 |  | 0.0697 | 0.0639 | 0.0806 |  |  | 0.0666 |  | 0.0535
6 | MGESLFKGPRDYNPISSSICHLTNESDGHTTSLYGIGFGPFIITNKHLFRRNNGTLVVQSLHGVFKVKDTTTLQQHLVDGRDMIIIRMPKDNPPFPQKLKFREPQREERICLVTTNFQTKSMSSMVSDTSCTFPSGDGIFWKHWIQTKDGQCGSPLVSTRDGFIVGIHSASNFTNTNNYFTSVPKNFMELLTNQEAQQWVSGWRLNADSVLWGGHKVFMVKPEEPFQPVKEATQL [F92N] | 0.0643 |  | 0.0764 |  |  |  | 0.0744 |  |  | 0.0558
7 | MGESLFKGPRDYNPISSSICHLTNESDGHTTSLYGIGFGPFIITNKHLFRRNNGTLVVQSLHGVFKVKDTTTLQQHLVDGRDMIIIRMPKDVPPFPQKLKFREPQREERICLVTTNFQTKSMSSMVSDTSCTFPSGDGIFWKHWIQTKDGQCGSPLVSTRDGFIVGIHSASNFTNTNNYFTSVPKNFMELLTNQEAQQWVSGWRLNADSVLWGGHKVFMVKPEEPFQPVKEATQL [F92V] | 0.0616 |  |  | 0.0586 |  |  |  | 0.0596 |  | 0.0578
8 | MGESLFKGPRDYNPISSSICHLTNESDGHTTSLYGIGFGPFIITNKHLFRRNNGTLVVQSLHGVFKVKDTTTLQQHLVDGRDMIIIRMPKDFDPFPQKLKFREPQREERICLVTTNFQTKSMSSMVSDTSCTFPSGDGIFWKHWIQTKDGQCGSPLVSTRDGFIVGIHSASNFTNTNNYFTSVPKNFMELLTNQEAQQWVSGWRLNADSVLWGGHKVFMVKPEEPFQPVKEATQL [P93D] | 0.0563 | 0.0666 | 0.102 |  | 0.0719 | 0.0649 |  | 0.0609 |  | 0.0595
9 | MGESLFKGPRDYNPISSSICHLTNESDGHTTSLYGIGFGPFIITNKHLFRRNNGTLVVQSLHGVFKVKDTTTLQQHLVDGRDMIIIRMPKDFPVFPQKLKFREPQREERICLVTTNFQTKSMSSMVSDTSCTFPSGDGIFWKHWIQTKDGQCGSPLVSTRDGFIVGIHSASNFTNTNNYFTSVPKNFMELLTNQEAQQWVSGWRLNADSVLWGGHKVFMVKPEEPFQPVKEATQL [P94V] | 0.0524 | 0.0948 | 0.0842 |  | 0.0755 |  | 0.0749 | 0.0629 |  | 
10 | MGESLFKGPRDYNPISSSICHLTNESDGHTTSLYGIGFGPFIITNKHLFRRNNGTLVVQSLHGVFKVKDTTTLQQHLVDGRDMIIIRMPKDFPPFPCKLKFREPQREERICLVTTNFQTKSMSSMVSDTSCTFPSGDGIFWKHWIQTKDGQCGSPLVSTRDGFIVGIHSASNFTNTNNYFTSVPKNFMELLTNQEAQQWVSGWRLNADSVLWGGHKVFMVKPEEPFQPVKEATQL [Q97C] | 0.0767 |  |  |  |  | 0.0874 |  |  |  | 
11 | MGESLFKGPRDYNPISSSICHLTNESDGHTTSLYGIGFGPFIITNKHLFRRNNGTLVVQSLHGVFKVKDTTTLQQHLVDGRDMIIIRMPKDFPPFPLKLKFREPQREERICLVTTNFQTKSMSSMVSDTSCTFPSGDGIFWKHWIQTKDGQCGSPLVSTRDGFIVGIHSASNFTNTNNYFTSVPKNFMELLTNQEAQQWVSGWRLNADSVLWGGHKVFMVKPEEPFQPVKEATQL [Q97L] | 0.0556 |  | 0.0696 | 0.0633 | 0.0747 |  |  | 0.06 |  | 0.0655

Same assay, conditions: temperature: 34 °C; time window: 0-4 h after rhamnose induction

Row | Variant | area with substrate KNLYFQS | area with substrate LNLYFQS | area with substrate TNLYFQS | area with substrate VNLYFQS | area with substrate YNLYFQS
12 | MGESLFKGPRDYNPISSSICHLTNESDGHTTSLYGIGFGPFIITNKHLFRRNNGTLVVQSLHGVFKVKDTTTLQQHLVDGRDMIIIRMPKMFPPFPQKLKFREPQREERICLVTTNFQTKSMSSMVSDTSCTFPSGDGIFWKHWIQTKDGQCGSPLVSTRDGFIVGIHSASNFTNTNNYFTSVPKNFMELLTNQEAQQWVSGWRLNADSVLWGGHKVFMVKPEEPFQPVKEATQL [D91M] | 0.0689 | 0.0748 |  |  | 
13 | MGESLFKGPRDYNPISSSICHLTNESDGHTTSLYGIGFGPFIITNKHLFRRNNGTLVVQSLHGVFKVKDTTTLQQHLVDGRDMIIIRMPKSFPPFPQKLKFREPQREERICLVTTNFQTKSMSSMVSDTSCTFPSGDGIFWKHWIQTKDGQCGSPLVSTRDGFIVGIHSASNFTNTNNYFTSVPKNFMELLTNQEAQQWVSGWRLNADSVLWGGHKVFMVKPEEPFQPVKEATQL [D91S] |  |  | 0.0732 | 0.0745 | 0.0658
14 | MGESLFKGPRDYNPISSSICHLTNESDGHTTSLYGIGFGPFIITNKHLFRRNNGTLVVQSLHGVFKVKDTTTLQQHLVDGRDMIIIRMPKDLPPFPQKLKFREPQREERICLVTTNFQTKSMSSMVSDTSCTFPSGDGIFWKHWIQTKDGQCGSPLVSTRDGFIVGIHSASNFTNTNNYFTSVPKNFMELLTNQEAQQWVSGWRLNADSVLWGGHKVFMVKPEEPFQPVKEATQL [F92L] |  | 0.0657 | 0.0552 | 0.0491 | 0.0439
15 | MGESLFKGPRDYNPISSSICHLTNESDGHTTSLYGIGFGPFIITNKHLFRRNNGTLVVQSLHGVFKVKDTTTLQQHLVDGRDMIIIRMPKDNPPFPQKLKFREPQREERICLVTTNFQTKSMSSMVSDTSCTFPSGDGIFWKHWIQTKDGQCGSPLVSTRDGFIVGIHSASNFTNTNNYFTSVPKNFMELLTNQEAQQWVSGWRLNADSVLWGGHKVFMVKPEEPFQPVKEATQL [F92N] |  | 0.0528 |  | 0.0592 | 0.0543
16 | MGESLFKGPRDYNPISSSICHLTNESDGHTTSLYGIGFGPFIITNKHLFRRNNGTLVVQSLHGVFKVKDTTTLQQHLVDGRDMIIIRMPKDVPPFPQKLKFREPQREERICLVTTNFQTKSMSSMVSDTSCTFPSGDGIFWKHWIQTKDGQCGSPLVSTRDGFIVGIHSASNFTNTNNYFTSVPKNFMELLTNQEAQQWVSGWRLNADSVLWGGHKVFMVKPEEPFQPVKEATQL [F92V] |  |  | 0.0694 |  | 
17 | MGESLFKGPRDYNPISSSICHLTNESDGHTTSLYGIGFGPFIITNKHLFRRNNGTLVVQSLHGVFKVKDTTTLQQHLVDGRDMIIIRMPKDFDPFPQKLKFREPQREERICLVTTNFQTKSMSSMVSDTSCTFPSGDGIFWKHWIQTKDGQCGSPLVSTRDGFIVGIHSASNFTNTNNYFTSVPKNFMELLTNQEAQQWVSGWRLNADSVLWGGHKVFMVKPEEPFQPVKEATQL [P93D] |  | 0.0662 | 0.0755 |  | 
18 | MGESLFKGPRDYNPISSSICHLTNESDGHTTSLYGIGFGPFIITNKHLFRRNNGTLVVQSLHGVFKVKDTTTLQQHLVDGRDMIIIRMPKDFPVFPQKLKFREPQREERICLVTTNFQTKSMSSMVSDTSCTFPSGDGIFWKHWIQTKDGQCGSPLVSTRDGFIVGIHSASNFTNTNNYFTSVPKNFMELLTNQEAQQWVSGWRLNADSVLWGGHKVFMVKPEEPFQPVKEATQL [P94V] |  | 0.0714 | 0.0775 | 0.0625 | 
